From the supplement of paper PMC3334620
The full ranking holds about 33,000 sequences; the median of “E-score (-0.5 to 0.5)” is about -0.056, and the highest 2% start at about 0.38. This is one part of the list.

Molecular target: Stb4 (UniProt P50104)
Experiment: PBM E-score (8-mer binding enrichment) (E-score (-0.5 to 0.5)); higher = stronger / more preferred TF binding; most listed sequences are background and not binding sites
Details: protein concentration: 200 nM; construct: GST-DNA-binding domain
Procedure, shortened: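 Masliner-normalised scans of fluorescent anti-GST signal were the basis for scoring. That signal came from GST-tagged yeast transcription factors applied at about 100-200 nM to double-stranded universal all-10-mer Agilent arrays on fresh or once-stripped slides. Each ungapped eight-base word, pooled with its reverse complement, received an E-score from the Universal PBM Analysis Suite.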

Sequence	PBM E-score
CGTAGTTA	-0.0572
ATCGGGAA	0.412
CACGCGTG	-0.126
TACCCAGA	-0.145
CCGATCAG	0.27
CACCGAAC	0.224
ACGTTAAT	0.0187
CCCCGTTC	0.0486
AACCGTAC	0.18
GATAAGCC	0.14
ACCCACCG	0.0732
CCGCTCCA	-0.0286
CCCGTAAA	0.08
AGGCTCCA	-0.139
CATATTAG	-0.0945
GACCTTCC	0.0856
GACCGGTC	0.108
GTATGTAA	-0.0166
CACAATTA	-0.147
ACACGGAC	0.131
GCGGCCAA	-0.0215
ATTCCTGG	-0.212
ATTACTAG	-0.0786
GAAGGGGA	-0.0938
ACATGGGA	-0.0843

Sequence	PBM E-score
GGCTTGTA	-0.185
CGGATCAC	0.397
GCCTTACA	-0.311
AGTAAGCG	-0.0174
AAGTTCTC	-0.0164
TATGCTAA	-0.271
CCACCGTC	-0.0117
AGACAGCC	0.0408
CCCTTTAA	-0.0722
TATACGGA	0.148
CTGAACGA	-0.223
AAGTACCG	0.302
CACGCCTG	-0.292
CGCATTGC	-0.0233
ATGCCGTA	0.078
CTCTCTCA	-0.272
CATCTCAC	-0.106
CTCCGGCC	0.128
CACACACC	0.102
AACCGATC	0.253
GTCACATA	-0.0504
AGCACCAA	-0.0885
AAGGATTG	-0.0613
ACATCGTG	-0.24
CCATCCGC	0.28

Sequence	PBM E-score
AAGTTTGT	0.0293
CAAGGCAG	-0.318
AGGCGTGA	-0.306
TGGCGTAA	-0.192
CCTCAAGG	-0.0686
CGATCCAC	-0.017
ATGCAGGC	-0.169
AAAGAGGC	-0.084
AAGGGAAT	-0.215
ACTGACAC	0.0382
ATTCCACC	0.179
GAGCCGAA	0.423
ATCGAAGA	0.0116
CTCCTCTC	-0.101
GCCCCCAC	-0.17
CGTAATAA	-0.113
TACAGCCA	-0.161
TTCCACAA	0.0123
CGTATCGC	0.107
CGCACTAA	0.0833
ACGAGGAC	-0.0093
GGCATCAC	0.043
GGTATCAC	0.056
ACAGATAC	0.12
GTACAGCA	-0.0127

Sequence	PBM E-score
ATACACAT	-0.103
AGCCTAGG	-0.0301
ACCTTAAA	-0.054
AATTCGGT	0.278
AGGTTTTC	0.0658
GTCACCTA	-0.331
GTCAGTCA	-0.103
CTGTATAC	-0.188
ACGATTGC	-0.0598
ACTTAATC	-0.0934
GGGAATAA	0.233
ATAAAAAG	0.0325
AAAGCGAC	-0.0194
CCTATACA	-0.245
CCATCGCC	-0.0803
CACGGTGC	-0.0954
ACGGGGGA	0.03
ACGACCCG	0.251
GGATTTGA	0.0899
CGTCCCCA	0.0177
CCGCTATC	0.211
CTCTGCAC	-0.0656
AATACGCC	0.0807
AAAGCACT	0.0131
ACAAGGAT	0.00875

Sequence	PBM E-score
GAATAATA	0.00562
GACGGTTA	0.132
CTGGTGAA	-0.205
ACGGAACC	0.328
CTACGTAC	-0.0854
CATTATCG	-0.0461
ATCGGTCA	-0.0132
AAAAGTCA	-0.185
CGCTAAAG	-0.111
AAGGTACA	-0.341
ACTTGTGC	-0.0204
CAAAGAGA	-0.147
ATAACTCC	0.158
AAATCCTC	0.00135
TCGTTGAA	-0.0617
GCTGGCCC	-0.156
CTTTACAC	0.0285
CAGCAGAG	-0.208
AAGCGTCC	-0.193
AGATATGC	-0.104
CTGCACCC	0.0152
CTATTTTC	0.124
CGAGGAAA	0.154
ATGACGGC	0.0972
GCGCTGAC	-0.0933

Sequence	PBM E-score
CATATACA	-0.105
ACCGAGCT	0.365
GGATGCCC	0.0918
CTAGGTAC	0.0229
CATCCCAG	-0.134
ATGGTCAA	-0.164
CGCAGACA	-0.087
CATAGTGA	-0.165
ATATTCCA	0.0331
CAAGCGCG	-0.0205
GGCTAATA	0.148
AGAAAGGG	-0.138
CGAGATCC	0.275
ACAAGCTG	-0.292
AGGAGGTG	-0.278
ATCGAGAA	-0.157
CACCTAAA	-0.0736
AAGCAGTA	-0.173
GCGTAGCC	-0.0878
CATGGTCA	-0.155
CTAATTCC	0.183
AGTCACGG	0.219
AGGCGCAT	-0.035
CACACGCC	0.127
CGCTTTGC	0.11

Sequence	PBM E-score
GTCTTCTA	-0.0723
GATAGGCC	0.0357
GATTACCC	0.207
CAAAATCG	0.0159
ACGTCCCG	0.299
CCTAAGGC	-0.293
GACCCGAA	0.428
GCGAGACA	-0.137
CAATCATC	-0.0315
AGTTCTGG	-0.154
CAATCATG	-0.203
ACCATGCA	-0.0846
GATTCGCA	-0.0177
ACCGCCAT	-0.0369
AAGCCCAC	-0.123
CTTCGCCA	-0.131
CTGGCCGA	0.189
ACAATGGC	-0.112
GTACTGAA	0.0336
CGGATCCC	0.38
AGACTTGC	-0.143
ACGCGTCC	0.212
